# Results taken from PubChem BioAssay AID1030 (National Center for Advancing Translational Sciences (NCATS), 2008).
# Hit rate of the full screen: of about 220,000 compounds, about 16,000 (7.3%) were called active. This list was built around the results that the source calls inconclusive (neither active nor inactive); the mix of calls is not that of the screen. Calls come from the whole dose curve; as a rule, active = well fitted inhibition curve with a large enough effect (not every such curve was filed as active); inconclusive = small, poorly fitted or top-dose-only effect, or another doubt; inactive = no such curve, though single readings can be large or run the other way. No potency is given beside an inconclusive call; the fits are too rough.
# Molecular target: Aldehyde dehydrogenase 1A1 (Homo sapiens) (UniProt P00352)
# Assay: qHTS Assay for Inhibitors of Aldehyde Dehydrogenase 1 (ALDH1A1);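 for activity, negative = inhibition: plate controls were no enzyme wells and a reference inhibitor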
# Settings: Purified ALDH1A1, NADH fluorescence, propionaldehyde substrate; series mostly up to 75.3 µM; activity, negative = inhibition: at the top concentration
# Potency is the fitted concentration of half-maximal effect; tags give direction and shape of the fitted curve.
# UniProt P00352, sequence (P00352 whole entry, looked up): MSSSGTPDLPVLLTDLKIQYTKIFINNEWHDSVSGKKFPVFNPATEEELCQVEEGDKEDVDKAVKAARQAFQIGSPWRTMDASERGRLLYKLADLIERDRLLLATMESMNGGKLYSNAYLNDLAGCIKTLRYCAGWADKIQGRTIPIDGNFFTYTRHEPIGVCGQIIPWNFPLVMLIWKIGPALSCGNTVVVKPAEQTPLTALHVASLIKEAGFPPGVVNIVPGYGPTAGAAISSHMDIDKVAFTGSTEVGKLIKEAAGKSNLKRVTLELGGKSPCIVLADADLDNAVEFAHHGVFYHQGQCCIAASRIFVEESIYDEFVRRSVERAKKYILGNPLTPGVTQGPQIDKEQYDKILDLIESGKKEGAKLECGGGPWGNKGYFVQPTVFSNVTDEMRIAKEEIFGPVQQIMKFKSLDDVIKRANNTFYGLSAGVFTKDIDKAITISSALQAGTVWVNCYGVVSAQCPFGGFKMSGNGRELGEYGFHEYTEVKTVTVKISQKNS
SMILES,Potency,"activity, negative = inhibition"
NNC(=O)c1oc2ccccc2c1-n1cccc1,active: 2.24 µM,
Cc1cc(Cl)c2ccccc2n1,,inactive: 11.3%
CC(C)c1nc2sc3c(SCC(=O)NCc4ccco4)ncnc3c2c2c1CCC2,"inconclusive [inhibitor, partial curve]",
Cc1c(C(=O)Oc2cccc3cccnc23)cccc1[N+](=O)[O-],"inconclusive [inhibitor, single point]",
BrC(c1cccc2ccccc12)c1cccc2ccccc12,"inconclusive [inhibitor, single point]",
CCOC(=O)Cn1c(C)nc2c(C(=O)OCC)sc(C)c2c1=O,"inconclusive [inhibitor, partial curve]",
CN(C)c1ccc(-c2ccc3ncnc(N(C)C)c3c2)cc1,"inconclusive [inhibitor, single point]",
COc1ccc(CN2CCN(C(=O)C3CC(=O)N(C4CCCCCC4)C3)CC2)c(OC)c1OC (stereo unspecified),active: 20 µM,
CCN(Cc1ccncc1)C(=O)c1ccc2c(c1)S(=O)(=O)c1ccccc1C2=O,"inconclusive [inhibitor, single point]",
COC(=O)CCC(=O)Nc1cccc2c(NC(=O)CCC(=O)OC)cccc12,"inconclusive [inhibitor, single point]",
COC(=O)c1cccc(-c2ccc(/C=N/N3C(=O)C4C5C=CC(C6CC56)C4C3=O)o2)c1 (stereo unspecified),active: 14.1 µM,
COc1cccc(-c2cc(C(F)(F)F)nc(N3CCCCC3)n2)c1,,inactive: -11.3%
CCN(CC)c1ccc2c(C)c(-c3ccc(N)cc3)c(=O)oc2c1,"inconclusive [inhibitor, partial curve]",
CCOc1ccc2cc(/C=C/C(=O)c3ccco3)c(Cl)nc2c1,"inconclusive [inhibitor, single point]",
Nc1ccc(N2CCN(c3ccc(F)cc3)CC2)cc1,active: 22.4 µM,
CCOC(=O)c1sc(NC(=O)c2ccncc2)c(C#N)c1C,active: 3.16 µM,
COc1ccc(S(=O)(=O)N2CCC(C(=O)NCc3ccccn3)CC2)cc1C,,inactive: -12.2%
COc1ccc(C(=O)OCC(=O)NCc2ccccc2)c(OC)c1OC,,inactive: 2.64%
COc1ccc(NCC(=O)n2c(C)c(C)c3ccccc32)cc1,active: 7.94 µM,
Cc1ncc([N+](=O)[O-])n1CCOC(=O)Nc1ccc(Cl)c(Cl)c1,"inconclusive [inhibitor, single point]",
CCOC(=O)c1nnn(-c2nonc2N)c1CSc1ccccc1,"inconclusive [inhibitor, partial curve]",
CCC1Oc2ccccc2N(CC(=O)NCCC2=CCCCC2)C1=O (stereo unspecified),"inconclusive [inhibitor, single point]",
Cc1cccc(-c2nc(C#N)c(NCc3ccco3)o2)c1,"inconclusive [inhibitor, partial curve]",
CC(=O)c1cccc(CN2CCN(C(C)C)C(CCO)C2)c1 (stereo unspecified),,inactive: 3.12%

SMILES,Potency,"activity, negative = inhibition"
CN1CCc2c(sc3c2C(=O)NC(c2cn(Cc4ccccc4)c4ccccc24)N3)C1 (stereo unspecified),"inconclusive [inhibitor, partial curve]",
COc1cccc(C(=O)c2c(C)c(CCC#N)n3ccccc23)c1,"inconclusive [inhibitor, single point]",
C/C(=C\C(=O)C(F)(F)F)Nc1ccc(C(F)(F)F)cc1,active: 22.4 µM,
Cc1ccc(Cl)cc1N1CCN(S(=O)(=O)N2CCCCC2)CC1,"inconclusive [inhibitor, partial curve]",
CCOC(=O)NN1C(=O)c2ccccc2NC1c1ccccc1F (stereo unspecified),"inconclusive [inhibitor, partial curve]",
CC(=O)N1N=C(c2ccc(C)c([N+](=O)[O-])c2)OC1(C)C,,inactive: 1.16%
COc1ccc(C)cc1NC(=O)CN1CCN(S(=O)(=O)c2ccc(F)cc2)CC1,"inconclusive [inhibitor, partial curve]",
Cc1ccc(NC(=S)NNC(=O)CSc2nc3ccccc3c(=O)n2-c2ccc(C)cc2)cc1,"inconclusive [inhibitor, partial curve]",
Cn1c(-c2ccc3c(c2)OCO3)cnc1NCc1ccccc1Cl,"inconclusive [inhibitor, partial curve]",
Cc1cc(/C=N\NC(=O)c2cccs2)c(C)n1-c1ccc2ncccc2c1,active: 20 µM,
CCOC(=O)COc1cc2c3c(c(=O)oc2cc1C)CCCC3,"inconclusive [inhibitor, partial curve]",
O=C(Nc1ccccc1)OCc1cn(-c2ccc(Cl)cc2)nn1,"inconclusive [inhibitor, partial curve]",
Cc1ccc(S(=O)(=O)CCC(=O)Nc2ccc(F)cc2)cc1,"inconclusive [inhibitor, single point]",
Cc1[nH]c2ccccc2c1SCCNC(=O)c1ccc(S(=O)(=O)N2CCCC2)cc1,"inconclusive [inhibitor, partial curve]",
Cn1c(=O)c2c(ncn2CCc2ccccc2)n(C)c1=O,"inconclusive [inhibitor, single point]",
CCCn1nc(NC(=O)c2ccco2)c2cc3ccccc3nc21,"inconclusive [inhibitor, partial curve]",
COc1ccc(NC(=O)c2cccc([N+](=O)[O-])c2)cc1,"inconclusive [inhibitor, single point]",
COc1ccccc1-n1cnc2cc(NCc3cccs3)ccc21,"inconclusive [inhibitor, single point]",
COc1ccc(Br)cc1C(=O)NC(=S)Nc1ccc(Cl)c(C(=O)O)c1,active: 17.8 µM,
CC(=O)N/C(=C/c1ccc(OS(=O)(=O)c2ccc(C)cc2)cc1)C(=O)NCCO,,inactive: -9.11%
CCOC(=O)c1c(NC(=O)CSc2nnc(C)s2)sc2c1CCC(CC)C2 (stereo unspecified),"inconclusive [inhibitor, single point]",
CC(=O)Nc1ccc(S(=O)(=O)Oc2ccc(C=O)cc2)cc1,active: 28.2 µM,
CCCCn1c(=S)[nH]c2ccc(N3CCOCC3)cc2c1=O,"inconclusive [inhibitor, partial curve]",
Cn1c(-c2ccc3c(c2)OCO3)c(C(=O)O)c(=O)c2ccccc21,"inconclusive [inhibitor, single point]",

SMILES,Potency,"activity, negative = inhibition"
CCCCOC(=O)CSC1=C(C#N)C(c2ccccc2OC)C(C#N)C(=O)N1 (stereo unspecified),"inconclusive [inhibitor, single point]",
Cc1cccc(NC(=S)/N=C(\N)Nc2nc(C)c3ccccc3n2)c1,"inconclusive [inhibitor, single point]",
Cc1cc(C)c2c(c1)c(C)cc1nnc(SCC(=O)NCc3ccco3)n12,"inconclusive [inhibitor, single point]",
Cc1ccc(C)c(NC(=S)NC(NC(=O)N(C)C)C(Cl)(Cl)Cl)c1 (stereo unspecified),"inconclusive [inhibitor, partial curve, poor fit]",
CC(=O)NCCc1cc2ccc(C)c(C)c2[nH]c1=O,"inconclusive [inhibitor, single point]",
COC(=O)c1cc(=O)n(CCc2ccc(OC)cc2)c(=Nc2ccc(F)c(Cl)c2)s1,,inactive: -1.52%
CCN1CCN(CCCNC(=O)c2cc3sccc3n2CC)CC1,"inconclusive [inhibitor, single point]",
CCOC(=O)c1ccc(NC(=O)C(C)N2C(=O)c3ccccc3C2=O)cc1 (stereo unspecified),"inconclusive [inhibitor, single point]",
COc1cc2cc(C(=O)Nc3ccccc3)c(N)nc2cc1OC,"inconclusive [inhibitor, single point]",
CCSc1ccccc1C(=O)Nc1ccc(S(=O)(=O)NC(C)=O)cc1,"inconclusive [inhibitor, single point]",
CCCOc1ccc(S(=O)(=O)NNC(=O)c2cc3ccccc3o2)cc1,"inconclusive [inhibitor, single point]",
FC(F)Oc1ccc(/C=N/NC(=S)Nc2cc(C(F)(F)F)ccc2Cl)cc1,,inactive: -2.84%
O=C(O)Cc1ccc(C(=O)c2ccccc2F)s1,active: 5.01 µM,
Cn1cc(C=O)c2cc(S(=O)(=O)N3CCOCC3)ccc21,"inconclusive [inhibitor, single point]",
COc1cccc(C2C3=C(Nc4[nH]n(-c5ccccc5)c(=O)c42)c2ccccc2C3=O)c1 (stereo unspecified),active: 20 µM,
COc1ccc(S(=O)(=O)N(C)CC(=O)Nc2ccc(F)cc2)cc1,,inactive: 9.74%
CS(=O)(=O)Nc1ccc(C(=O)NCCSCc2ccccc2)cc1,active: 11.2 µM,
Cc1ccccc1NS(=O)(=O)c1ccc2[nH]c(=O)[nH]c2c1,,inactive: -4.63%
O=C(NC1CCCC1)C(c1cccnc1)N(C(=O)c1csnn1)C1CCCC1 (stereo unspecified),"inconclusive [inhibitor, single point]",
CN(C)S(=O)(=O)c1ccc(Cl)c(NC(=O)CSc2nc3ccccc3c(=O)n2CCCN2CCOCC2)c1,"inconclusive [inhibitor, single point]",
COCCCNCC(O)C(F)(F)F (stereo unspecified),,inactive: 5.94%
O=C(/C=C/c1ccc(S(=O)(=O)NCc2ccco2)cc1)NCc1ccccc1Cl,active: 28.2 µM,
CCc1ccc2[nH]c(=O)c(CN(Cc3ccc4c(c3)OCO4)Cc3nnnn3C3CCCC3)cc2c1,"inconclusive [inhibitor, partial curve]",
